The results in this text go back to US20170212130A1 (ROCKEFELLER UNIVERSITY, published 2017).

Assay [1] addresses T1, mCherry (Discosoma).
T1 construct: Immunogen is mCherry-His6; SPR says recombinant mCherry; also called recombinant mCherry-His6; Discosoma mCherry
As to the kind of experiment: SPR, mCherry immobilized. For orientation: SPR reads the build-up and loss of mass on a sensor chip optically.

In the next assay the target is T2, GFP-His6 (eGFP) (Aequorea victoria, UniProt P42212 = GFP).
T2 construct: SPR and bead assays speak only of recombinant GFP or eGFP; also called recombinant GFP; A. victoria (Av) GFP
As to the kind of experiment: bead binding: nanobody-Dynabeads + fluorescent protein, eluate on SDS-PAGE.

Assay [2] addresses T1, mCherry. As to the kind of experiment: label under gel lane; legend: in vitro Kd for mCherry by SPR.
In the next assay the target is T3, DsRed (Discosoma sp., UniProt Q9U6Y8 1-225).
T3 construct: Recombinant fluorescent protein; construct not described; also called standard DsRed; DsRed from Discosoma (Ds)
As to the kind of experiment: bead binding: nanobody-Dynabeads + fluorescent protein, eluate on SDS-PAGE.

DsRed, sequence (Q9U6Y8 whole entry): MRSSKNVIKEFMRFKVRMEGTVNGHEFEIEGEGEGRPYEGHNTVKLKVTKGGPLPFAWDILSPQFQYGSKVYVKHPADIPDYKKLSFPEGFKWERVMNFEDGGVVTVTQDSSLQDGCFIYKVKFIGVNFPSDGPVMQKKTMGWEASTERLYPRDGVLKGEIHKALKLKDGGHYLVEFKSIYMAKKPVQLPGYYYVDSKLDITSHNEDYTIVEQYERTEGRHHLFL

B1: LaM-4 (VHH)
VHH: QVQLVESGGSLVQPGGSLRLSCAASGRFAESSSMGWFRQAPGKEREFVAAISWSGGATNYADSAKGRFTLSRDNTKNTVYLQMNSLKPDDTAVYYCAANLGNYISSNQRLYGYWGQGTQVTVSS
Turning to B1, the dissociation constant (Kd) with mCherry [1] and with mCherry [2] was 0.18 nM throughout. Besides, the binding result with GFP-His6 (eGFP) is listed as “no binding”.

B2: LaM-2 (VHH)
VHH: QVQLVESGGGLVQAGGSLRLSCATSGFTFSDYAMGWFRQAPGKEREFVAAISWSGHVTDYADSVKGRFTISRDNVKNTVYLQMNSLKPEDTAVYSCAAAKSGTWWYQRSENDFGSWGQGTQVTVSK
Regarding B2, the Kd with mCherry [1] and with mCherry [2] was 0.49 nM in each case. In addition, the binding result in the assay with DsRed and with GFP-His6 (eGFP) was “no binding” throughout.

Broadly, the Kd is the equilibrium constant for the complex coming apart. A higher Kd goes with lower affinity.
